Results reported in PMC10022797, “Role of Nesprin-2 and RanBP2 in BICD2-associated brain developmental disorders” (PLOS Genetics, 2023).
Results are given in words; binding and its absence hold for the method and conditions named. For some assays here: Binding seen in cells or lysates may run through a third protein. Some entries that bind do so weakly or less than the wild type.

Amino acid sequences for entries named in this document (tags omitted). A change or cut given only in a name is not applied to a line headed by its entry. Chains listed by the source or under a name are the forms on record and can include a tag or linker. Residues count along the entry.
UniProt P49792: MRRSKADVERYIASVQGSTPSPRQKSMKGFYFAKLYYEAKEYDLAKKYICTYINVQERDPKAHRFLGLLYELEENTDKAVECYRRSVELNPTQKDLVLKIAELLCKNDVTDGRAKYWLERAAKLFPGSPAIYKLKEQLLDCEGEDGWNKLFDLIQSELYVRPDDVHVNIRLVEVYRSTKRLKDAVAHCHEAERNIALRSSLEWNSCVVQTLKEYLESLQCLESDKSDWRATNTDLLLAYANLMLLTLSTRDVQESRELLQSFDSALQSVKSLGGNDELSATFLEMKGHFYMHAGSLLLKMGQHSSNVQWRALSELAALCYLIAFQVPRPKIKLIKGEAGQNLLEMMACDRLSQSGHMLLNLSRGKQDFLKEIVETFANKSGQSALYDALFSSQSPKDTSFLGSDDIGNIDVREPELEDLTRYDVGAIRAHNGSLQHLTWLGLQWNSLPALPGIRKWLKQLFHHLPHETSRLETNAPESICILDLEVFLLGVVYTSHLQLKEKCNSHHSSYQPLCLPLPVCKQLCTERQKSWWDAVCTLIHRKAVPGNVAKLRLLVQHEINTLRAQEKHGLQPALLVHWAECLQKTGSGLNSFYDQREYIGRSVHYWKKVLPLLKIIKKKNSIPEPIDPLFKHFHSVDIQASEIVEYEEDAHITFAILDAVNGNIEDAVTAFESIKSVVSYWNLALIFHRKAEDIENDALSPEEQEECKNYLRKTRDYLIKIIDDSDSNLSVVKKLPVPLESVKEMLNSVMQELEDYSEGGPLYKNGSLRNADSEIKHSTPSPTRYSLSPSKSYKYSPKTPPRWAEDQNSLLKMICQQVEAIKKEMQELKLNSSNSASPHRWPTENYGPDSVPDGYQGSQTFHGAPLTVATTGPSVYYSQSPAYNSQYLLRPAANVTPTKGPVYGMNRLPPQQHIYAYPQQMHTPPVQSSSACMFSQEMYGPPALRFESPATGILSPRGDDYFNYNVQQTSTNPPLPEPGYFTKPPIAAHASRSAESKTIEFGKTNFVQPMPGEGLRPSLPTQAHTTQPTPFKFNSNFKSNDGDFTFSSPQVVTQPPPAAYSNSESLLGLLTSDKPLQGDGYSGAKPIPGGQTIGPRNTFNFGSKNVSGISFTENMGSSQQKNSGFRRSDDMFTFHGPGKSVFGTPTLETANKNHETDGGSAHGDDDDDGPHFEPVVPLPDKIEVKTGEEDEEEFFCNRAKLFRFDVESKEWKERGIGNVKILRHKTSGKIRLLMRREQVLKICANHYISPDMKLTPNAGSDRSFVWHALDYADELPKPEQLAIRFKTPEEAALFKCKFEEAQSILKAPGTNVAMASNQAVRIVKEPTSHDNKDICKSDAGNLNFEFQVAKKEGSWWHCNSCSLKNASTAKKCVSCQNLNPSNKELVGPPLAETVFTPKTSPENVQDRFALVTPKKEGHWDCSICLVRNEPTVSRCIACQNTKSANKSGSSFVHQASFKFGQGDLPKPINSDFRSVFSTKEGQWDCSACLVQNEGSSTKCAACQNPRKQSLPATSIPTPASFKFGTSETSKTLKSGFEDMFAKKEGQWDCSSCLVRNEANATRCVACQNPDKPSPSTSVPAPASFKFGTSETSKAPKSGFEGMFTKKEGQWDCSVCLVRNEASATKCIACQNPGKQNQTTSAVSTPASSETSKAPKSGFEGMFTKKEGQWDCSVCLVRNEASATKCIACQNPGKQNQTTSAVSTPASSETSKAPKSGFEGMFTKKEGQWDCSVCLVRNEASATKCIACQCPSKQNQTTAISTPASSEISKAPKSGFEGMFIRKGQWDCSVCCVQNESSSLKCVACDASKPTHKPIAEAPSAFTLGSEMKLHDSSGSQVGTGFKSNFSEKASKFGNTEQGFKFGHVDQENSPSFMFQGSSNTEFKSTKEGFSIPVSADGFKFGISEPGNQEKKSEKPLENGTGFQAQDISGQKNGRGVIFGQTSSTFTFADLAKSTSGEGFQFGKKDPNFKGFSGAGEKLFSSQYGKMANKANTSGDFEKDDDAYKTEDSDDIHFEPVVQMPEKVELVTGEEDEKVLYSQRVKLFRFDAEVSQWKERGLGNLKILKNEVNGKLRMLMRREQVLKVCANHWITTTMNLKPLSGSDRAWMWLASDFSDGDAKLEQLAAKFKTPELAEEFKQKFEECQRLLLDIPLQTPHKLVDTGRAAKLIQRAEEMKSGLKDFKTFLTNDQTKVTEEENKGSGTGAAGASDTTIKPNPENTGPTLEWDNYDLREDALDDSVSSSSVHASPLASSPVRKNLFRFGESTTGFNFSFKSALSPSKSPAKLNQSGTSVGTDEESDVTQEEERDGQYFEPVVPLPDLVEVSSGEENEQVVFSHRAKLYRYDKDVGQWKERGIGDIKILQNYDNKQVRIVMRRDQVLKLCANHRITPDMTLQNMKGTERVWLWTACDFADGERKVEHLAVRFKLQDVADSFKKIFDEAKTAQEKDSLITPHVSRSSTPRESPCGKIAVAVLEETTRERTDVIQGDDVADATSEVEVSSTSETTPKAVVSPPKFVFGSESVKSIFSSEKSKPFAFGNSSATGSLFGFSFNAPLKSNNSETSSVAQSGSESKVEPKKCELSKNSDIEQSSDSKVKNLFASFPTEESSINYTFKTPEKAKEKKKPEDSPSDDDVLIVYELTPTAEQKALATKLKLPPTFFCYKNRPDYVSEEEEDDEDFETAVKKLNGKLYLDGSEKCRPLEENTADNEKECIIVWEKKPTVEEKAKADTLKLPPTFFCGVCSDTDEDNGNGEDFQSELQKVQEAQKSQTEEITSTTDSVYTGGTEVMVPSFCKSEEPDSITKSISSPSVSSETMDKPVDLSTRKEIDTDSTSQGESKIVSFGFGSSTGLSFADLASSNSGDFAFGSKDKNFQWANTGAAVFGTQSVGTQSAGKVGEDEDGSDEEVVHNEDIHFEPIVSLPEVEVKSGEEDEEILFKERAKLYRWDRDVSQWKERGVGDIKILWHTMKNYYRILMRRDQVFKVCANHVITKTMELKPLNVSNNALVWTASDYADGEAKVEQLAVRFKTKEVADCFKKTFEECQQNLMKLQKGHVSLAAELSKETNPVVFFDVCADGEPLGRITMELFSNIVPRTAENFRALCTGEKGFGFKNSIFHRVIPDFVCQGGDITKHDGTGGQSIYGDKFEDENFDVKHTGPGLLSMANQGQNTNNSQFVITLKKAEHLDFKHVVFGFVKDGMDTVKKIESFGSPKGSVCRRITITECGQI
GST-tagged RanBP2 fragment (BICD2 binding domain, aa 2148–2240), on glutathione Sepharose: residues 2148-2240 of P49792

Assays:
[1] = molecular target: GST-tagged RanBP2 fragment (BICD2 binding domain, aa 2148–2240), on glutathione Sepharose (human) (UniProt P49792); assay: pull-down; GST-RanBP2 or GST-Nesprin-2 held on glutathione Sepharose (not eluted), purified His6-tagged BICD2 fragment added to the column, washed, eluted; Coomassie-stained SDS-PAGE, bands quantified (3 sets); both purified
[2] = molecular target: GST-His6-BICD2-CT (aa 630–820) T699M (mouse) (UniProt Q921C5); assay: pull-down; GST-His6-BICD2-CT WT or mutant on glutathione magnetic beads, incubated 3 hrs at 4°C with untransfected or GFP-Nesprin-2 expressing HeLaM lysate (RIPA buffer); immunoblot with anti-RanBP2, anti-GFP and anti-GST, signal ratio normalised to wildtype; only the target purified
[3] = molecular target: GST-His6-BICD2-CT (aa 630–820) L679R (mouse) (UniProt Q921C5); assay: as above
[4] = molecular target: GST-His6-BICD2-CT (aa 630–820) K785M (mouse) (UniProt Q921C5); assay: as above
[5] = molecular target: GST-His6-BICD2-CT (aa 630–820) wildtype (mouse) (UniProt Q921C5); assay: as above

| binding [1] | Substance | binding [2] | binding [3] | binding [4] | binding [5] |
| --- | --- | --- | --- | --- | --- |
| no binding | BICD2 aa 750–800 (from UniProt Q921C5-1 750-800) (domain or fragment) | – | – | – | – |
| – | RanBP2, endogenous in HeLaM cells (from UniProt P49792 1-3224) | binds | binds | binds weakly | binds |
